Key:
[1] = tested on: R28 retinal neuronal-like cells; assay: R28 cells subjected to OGD/reoxygenation, MTT assay; type: cell-based; details: 3 hours OGD then 3 hours reoxygenation, PEG-A1 0.1 and 1 μg/mL
Method: (§1) Oxygen-glucose deprivation/reoxygenation (OGD/R) protocol: Oxygen-glucose deprivation/reoxygenation (OGD/R) in vitro was used to mimic in vivo ischemia/reperfusion injury. To achieve OGD, neuron culture was incubated in a hypoxia chamber (ProOx 110, Biospherix, <1% O2, 94% N2, and 5% CO2 at 37° C.) and glucose free DMEM medium and in some experiments this was followed by “reoxygenation” in complete medium under normoxic conditions (95% air, 5% CO2 at 37° C.).
(§2) R28 retinal neuronal-like cells: Cells were purchased from Kerafast, Inc. Boston, Mass. 02210. Cells were cultured and differentiated as described Kong, et al., Exp Eye Res., 151:82-95 (2016) and McLaughlin, et al., Frontiers in Aging Neuroscience, 10:267 (2018). Cell passages 67 to 70 were used for experiments.

[2] = tested on: R28 retinal neuronal-like cells; assay: R28 cells subjected to OGD, LDH release assay; type: cell-based; details: 6 or 24 hours of OGD, PEG-A1 1 μg/mL throughout
Method: as §1, §2

B1: PEG-A1: recombinant human arginase (rhArg) covalently attached to methoxy polyethylene glycol (mPEG-SPA; MW 5,000) via succinamide propionic acid (SPA) linker (protein, UniProt P05089 1-322, looked up)
Arginase-1: MSAKSRTIGIIGAPFSKGQPRGGVEEGPTVLRKAGLLEKLKEQECDVKDYGDLPFADIPNDSPFQIVKNPRSVGKASEQLAGKVAEVKKNGRISLVLGGDHSLAIGSISGHARVHPDLGVIWVDAHTDINTPLTTTSGNLHGQPVSFLLKELKGKIPDVPGFSWVTPCISAKDIVYIGLRDVDPGEHYILKTLGIKYFSMTEVDRLGIGKVMEETLSYLLGRKKRPIHLSFDVDGLDPSFTPATGTPVVGGLTYREGLYITEEIYKTGLLSGLDIMEVNPSLGKTPEEVTRTVNTAVAITLACFGLAREGNHKPIDYLNPPK
modifications: mPEG-SPA 5 kDa conjugate
notes: recombinant human arginase (rhArg) covalently attached to methoxy polyethylene glycol (mPEG-SPA; MW 5,000) via succinamide propionic acid (SPA) linker
B1 was tested, and the “cell viability (MTT)” value [1] was “no difference” and the “cell death (LDH release)” value [2] was “did not show any differences in cell death”.
